# The supplement of paper PMC8728848
# The other results are listed elsewhere or left out.
# B1: CTLY 1 (Homo sapiens), Q6ZS10 (protein)
# chain: AITCPEGWLPFEGKCYYFSPSTKSWDEARMFCQENYSHLVIINSFAEHNFVAKAHGSPRVYWLGLNDRAQEGDWRWLDGSPVTLSFWEPEEPNNIHDEDCATMNKGGTWNDLSCYKTTYWICERKGLNDIFEAQKIEWHE
# Tests used:
# Experiment in all cases: glycan array binding signal (z-score within array); higher = stronger binding
# Details in all cases: glycan notation: IUPAC condensed, linker removed
# Fuc(a1-2)Gal = target: Fuc(a1-2)Gal
# Summary of the method: (§1)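 Glycan array binding is given as a within-array Z-score, which can be read as non-binding when negative. The arrays, 3228 of them, came from the Consortium for Functional Glycomics database and were retained only where the protein sequence was available. Z-scores were averaged across arrays of the same protein sequence at different concentrations or buffers and across linkers.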
# Fuc(a1-2)Gal(b1-3)GalNAc = target: Fuc(a1-2)Gal(b1-3)GalNAc
# Summary of the method: as §1
# [1] = target: Fuc(a1-2)Gal(b1-3)GalNAc(a1-3)[Fuc(a1-2)]Gal(b1-4)Glc
# Summary of the method: as §1
# [2] = target: Fuc(a1-2)Gal(b1-3)GalNAc(a1-3)[Fuc(a1-2)]Gal(b1-4)GlcNAc
# Summary of the method: as §1
# [3] = target: Fuc(a1-2)Gal(b1-3)GalNAc(b1-3)Gal
# Summary of the method: as §1
# [4] = target: Fuc(a1-2)Gal(b1-3)GalNAc(b1-3)Gal(a1-4)Gal(b1-4)Glc
# Summary of the method: as §1
# [5] = target: Fuc(a1-2)Gal(b1-3)GalNAc(b1-4)[Neu5Ac(a2-3)]Gal(b1-4)Glc
# Summary of the method: as §1
# Fuc(a1-2)Gal(b1-3)GlcNAc = target: Fuc(a1-2)Gal(b1-3)GlcNAc
# Summary of the method: as §1
# [6] = target: Fuc(a1-2)Gal(b1-3)GlcNAc(b1-2)Man(a1-3)[Fuc(a1-2)Gal(b1-3)GlcNAc(b1-2)Man(a1-6)]Man(b1-4)GlcNAc(b1-4)GlcNAc
# Summary of the method: as §1
# [7] = target: Fuc(a1-2)Gal(b1-3)GlcNAc(b1-3)Gal(b1-4)Glc
# Summary of the method: as §1
# [8] = target: Fuc(a1-2)Gal(b1-3)GlcNAc(b1-3)[Fuc(a1-3)[Gal(b1-4)]GlcNAc(b1-6)]Gal(b1-4)Glc
# Summary of the method: as §1
# [9] = target: Fuc(a1-2)Gal(b1-3)[Fuc(a1-4)]GlcNAc
# Summary of the method: as §1
# [10] = target: Fuc(a1-2)Gal(b1-3)[Fuc(a1-4)]GlcNAc(b1-2)Man(a1-3)[Fuc(a1-2)Gal(b1-3)[Fuc(a1-4)]GlcNAc(b1-2)Man(a1-6)]Man(b1-4)GlcNAc(b1-4)GlcNAc
# Summary of the method: as §1
# [11] = target: Fuc(a1-2)Gal(b1-3)[Fuc(a1-4)]GlcNAc(b1-3)[Fuc(a1-3)[Gal(b1-4)]GlcNAc(b1-6)]Gal(b1-4)Glc
# Summary of the method: as §1
# [12] = target: Fuc(a1-2)Gal(b1-3)[Fuc(a1-4)]GlcNAc(b1-3)[Gal(b1-4)GlcNAc(b1-6)]Gal(b1-4)Glc
# Summary of the method: as §1
# Fuc(a1-2)Gal(b1-4)Glc = target: Fuc(a1-2)Gal(b1-4)Glc
# Summary of the method: as §1
# Fuc(a1-2)Gal(b1-4)Glc6S = target: Fuc(a1-2)Gal(b1-4)Glc6S
# Summary of the method: as §1
# Fuc(a1-2)Gal(b1-4)GlcNAc = target: Fuc(a1-2)Gal(b1-4)GlcNAc
# Summary of the method: as §1
# [13] = target: Fuc(a1-2)Gal(b1-4)GlcNAc(b1-2)Man(a1-3)[Fuc(a1-2)Gal(b1-4)GlcNAc(b1-2)Man(a1-6)]Man(b1-4)GlcNAc(b1-4)GlcNAc
# Summary of the method: as §1
# [14] = target: Fuc(a1-2)Gal(b1-4)GlcNAc(b1-3)Gal(b1-4)GlcNAc
# Summary of the method: as §1
# [15] = target: Fuc(a1-2)Gal(b1-4)GlcNAc(b1-3)Gal(b1-4)GlcNAc(b1-3)Gal(b1-4)GlcNAc
# Summary of the method: as §1
# [16] = target: Fuc(a1-2)Gal(b1-4)GlcNAc(b1-3)GalNAc
# Summary of the method: as §1
# [17] = target: Fuc(a1-2)Gal(b1-4)GlcNAc6S
# Summary of the method: as §1
# [18] = target: Fuc(a1-2)Gal(b1-4)[Fuc(a1-3)]GlcNAc
# Summary of the method: as §1
# [19] = target: Fuc(a1-2)Gal(b1-4)[Fuc(a1-3)]GlcNAc(b1-2)Man(a1-3)[Fuc(a1-2)Gal(b1-4)[Fuc(a1-3)]GlcNAc(b1-2)Man(a1-6)]Man(b1-4)GlcNAc(b1-4)GlcNAc
# Summary of the method: as §1
# [20] = target: Fuc(a1-2)Gal(b1-4)[Fuc(a1-3)]GlcNAc(b1-3)Gal(b1-4)[Fuc(a1-3)]GlcNAc
# Summary of the method: as §1
# [21] = target: Fuc(a1-2)Gal(b1-4)[Fuc(a1-3)]GlcNAc(b1-3)Gal(b1-4)[Fuc(a1-3)]GlcNAc(b1-3)Gal(b1-4)[Fuc(a1-3)]GlcNAc
# Summary of the method: as §1
# Fuc(a1-2)Gal6S(b1-4)Glc = target: Fuc(a1-2)Gal6S(b1-4)Glc
# Summary of the method: as §1
# [22] = target: Fuc(a1-2)Gal6S(b1-4)Glc6S
# Summary of the method: as §1
# [23] = target: Fuc(a1-2)Gal6S(b1-4)GlcNAc
# Summary of the method: as §1
binder,measurement,setting,value
B1,glycan array binding signal (z-score),Fuc(a1-2)Gal,-0.2
same,glycan array binding signal (z-score),Fuc(a1-2)Gal(b1-3)GalNAc,-0.234
same,glycan array binding signal (z-score),[1],-0.21
same,glycan array binding signal (z-score),[2],-0.207
same,glycan array binding signal (z-score),[3],-0.174
same,glycan array binding signal (z-score),[4],-0.003
same,glycan array binding signal (z-score),[5],-0.229
same,glycan array binding signal (z-score),Fuc(a1-2)Gal(b1-3)GlcNAc,-0.234
same,glycan array binding signal (z-score),[6],0.119
same,glycan array binding signal (z-score),[7],-0.241
same,glycan array binding signal (z-score),[8],-0.239
same,glycan array binding signal (z-score),[9],0.157
same,glycan array binding signal (z-score),[10],-0.104
same,glycan array binding signal (z-score),[11],-0.034
same,glycan array binding signal (z-score),[12],-0.218
same,glycan array binding signal (z-score),Fuc(a1-2)Gal(b1-4)Glc,-0.226
same,glycan array binding signal (z-score),Fuc(a1-2)Gal(b1-4)Glc6S,-0.241
same,glycan array binding signal (z-score),Fuc(a1-2)Gal(b1-4)GlcNAc,-0.167
same,glycan array binding signal (z-score),[13],0.032
same,glycan array binding signal (z-score),[14],-0.191
same,glycan array binding signal (z-score),[15],-0.23
same,glycan array binding signal (z-score),[16],-0.23
same,glycan array binding signal (z-score),[17],-0.237
same,glycan array binding signal (z-score),[18],0.421
same,glycan array binding signal (z-score),[19],-0.127
same,glycan array binding signal (z-score),[20],2.11
same,glycan array binding signal (z-score),[21],4.81
same,glycan array binding signal (z-score),Fuc(a1-2)Gal6S(b1-4)Glc,-0.224
same,glycan array binding signal (z-score),[22],-0.208
same,glycan array binding signal (z-score),[23],-0.214
